Hit rate of the full screen: of about 48,000 compounds, about 550 (1.1%) were called active. Not shown: some 4% with an inconclusive outcome. Cut-off read from the data, not from the text of the source: active = potency below about 15 µM; inconclusive = mostly about 16 µM to 33 µM; inactive = weaker than that. The list shows a part of the results.
molecular target: Lysosomal acid glucosylceramidase (Homo sapiens) (UniProt P04062); experiment: Glucocerebrosidase; settings: purified enzyme, resorufin glucoside fluorescence (screen aimed at inhibitors), 20 min;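 note: the screen sought inhibitors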
Method in brief: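 Compounds titrated against 0.2 nM normal enzyme, 30 uM resorufin beta-D-glucopyranoside substrate, citrate/phosphate buffer with taurocholate and tween-20, pH 5.9. Reaction ran 20 min at room temperature; fluorescence (Ex 548/Em 600) gave AC50.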
Potency is the fitted concentration of half-maximal effect.

UniProt P04062, sequence (P04062 whole entry, looked up): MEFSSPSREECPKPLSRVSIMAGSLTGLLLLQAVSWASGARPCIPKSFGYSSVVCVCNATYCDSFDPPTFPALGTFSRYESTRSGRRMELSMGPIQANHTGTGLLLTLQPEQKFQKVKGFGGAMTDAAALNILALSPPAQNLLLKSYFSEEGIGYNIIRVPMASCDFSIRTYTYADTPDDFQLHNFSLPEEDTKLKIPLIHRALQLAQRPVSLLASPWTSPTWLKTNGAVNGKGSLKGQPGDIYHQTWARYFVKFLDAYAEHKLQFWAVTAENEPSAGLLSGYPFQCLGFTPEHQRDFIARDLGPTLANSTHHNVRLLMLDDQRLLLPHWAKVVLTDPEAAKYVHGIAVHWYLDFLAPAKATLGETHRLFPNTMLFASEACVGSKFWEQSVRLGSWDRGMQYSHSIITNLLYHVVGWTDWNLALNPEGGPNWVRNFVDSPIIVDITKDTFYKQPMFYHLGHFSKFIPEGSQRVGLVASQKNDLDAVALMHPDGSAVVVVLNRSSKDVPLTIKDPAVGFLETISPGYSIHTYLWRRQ

Potency, inactive:
COC(=O)C(C)Sc1nc(-c2ccc(OC)cc2)nc2c1c(=O)n(C)c(=O)n2C (stereo not given) > 76.9 µM, O=c1c2ccccc2nnn1CSc1nnc(-c2cccc(S(=O)(=O)N3CCCCC3)c2)o1 > 76.9 µM, CCOC(=O)c1ccc(CNC(=O)CSc2nnnn2-c2ccc(Cl)cc2)o1 > 76.9 µM, O=C(c1cc2cc(Cl)ccc2oc1=O)N1CCOCC1 > 76.9 µM, CCCSc1nc(C)cc(=O)[nH]1 > 76.9 µM, CC1CCN(C(=O)Cn2c(=O)n(CCc3ccccc3)c(=O)c3ccccc32)CC1 > 76.9 µM, COc1ccc2nc(/N=C\N(C)C)sc2c1 > 76.9 µM, CCC(=O)N1CCc2cc(S(=O)(=O)NCCC(=O)N3CC=C(c4ccccc4)CC3)ccc21 > 76.9 µM, CCc1ccccc1N=C1SCC(=O)N1C > 76.9 µM, Cc1nn(C)c(C)c1S(=O)(=O)N(CC(=O)NCCCOC(C)C)c1ccc(C(C)C)cc1 > 76.9 µM, O=C1CC(c2ccc3c(c2)OCO3)CN1 (stereo not given) > 76.9 µM, COc1ccc(CNC(=O)NC2CCCCC2)cc1 > 76.9 µM, COc1ccc(OC)c2[nH]c(=O)c(CCNC(=O)C3CCCCC3)cc12 > 76.9 µM, CC12CCC(C(=O)NCCN3CCCCC3)(CC1=O)C2(C)C (stereo not given) > 76.9 µM, COc1ccc2nc3oc(C(=O)N4CCC(C(N)=O)CC4)cc3cc2c1 > 76.9 µM, CC(C)(C)c1ccc(C(=O)CSc2ncn[nH]2)cc1 > 76.9 µM, CCCn1c(N)c(C(=O)CSc2nc3ccccc3n2CCC#N)c(=O)n(C)c1=O > 76.9 µM, Nc1cc(N)nc(SCC(=O)Nc2ccc(Br)cc2Cl)n1 > 76.9 µM, CC(C)(C)c1ccc(SCC(N)=O)cc1 > 76.9 µM, O=C(O)CSc1nnc(-c2ccco2)o1 > 76.9 µM, c1ccc(N2CCN(c3ncnc4scc(-c5cccs5)c34)CC2)cc1 > 76.9 µM, C=CCn1cc(C(=O)NCC2CCCO2)c(=O)c2cc(S(=O)(=O)N3CCCCCC3)ccc21 (stereo not given) > 76.9 µM, CCS(=O)(=O)NCc1cn2ccsc2n1 > 76.9 µM, Cc1ccccc1-n1c(SCc2c(C)noc2C)nnc1-c1c[nH]c2ccccc12 > 76.9 µM, COCCn1c(=O)c2c(nc3n2CCN3c2ccc(C)cc2)n(C)c1=O > 76.9 µM, Cc1cc(C)c2c(=O)c3c(oc2c1)C(=O)N(CCO)C3c1cccc(O)c1 (stereo not given) > 76.9 µM, CC(=O)Nc1cc(C(=O)O)ccc1S(=O)(=O)c1ccc(Cl)cc1 > 76.9 µM, CCCCn1c(=S)[nH]c2ncccc2c1=O > 76.9 µM, C=CCN1C(c2ccccc2)=CS/C1=C(\C#N)c1nnc2n1CCCCC2 > 76.9 µM, c1ccc2c(c1)nc(N1CCOCC1)c1c3ccccc3[nH]c21 > 76.9 µM, COc1ccc(S(=O)(=O)N2CCCC(C(=O)NCc3ccncc3)C2)cc1Cl (stereo not given) > 76.9 µM, COc1ccc(CNc2cc(C)ccc2C)c(OC)c1OC > 76.9 µM, C=CCn1c(=O)/c(=C/c2cc(OC)c(OC)c(OC)c2)s/c1=C(/C#N)c1nc2ccccc2n1C > 76.9 µM, CC1(C)CC(=O)C(CC2=C(O)CC(C)(C)CC2=O)C(=O)C1 > 76.9 µM, O=C(CSc1nnc2scc(-c3ccccc3)n12)N1CCCc2ccccc21 > 76.9 µM, c1ccc(CSc2nnnn2-c2cccc3ccccc23)nc1 > 76.9 µM, COc1cccc(-n2c(SCC(N)=O)nnc2-c2ccncc2)c1 > 76.9 µM, O=C(Nc1nnc(C2CCCCC2)s1)c1ccco1 > 76.9 µM, Cc1cccc2nc(Cn3c(=O)n(CCCC(=O)NCc4ccco4)c(=O)c4ccccc43)cc(=O)n12 > 76.9 µM, COc1ccccc1C(=O)Nc1cccc(-c2cn3ccsc3n2)c1 > 76.9 µM, O=C1CC(=O)N(CCc2ccccc2)C(=O)N1CCc1ccccc1 > 76.9 µM, Cc1ccc(-n2ncc3c(=O)n(-c4ccc(C)c(C)c4)c(C)nc32)cc1 > 76.9 µM, CC(C)CN(CC(C)C)S(=O)(=O)N1CCC(C(=O)NCCN2CCOCC2)CC1, COc1ccc2[nH]c(=O)c(CN(C(=O)c3cccnc3)c3ccccc3OC)cc2c1 > 76.9 µM, O=C(Nc1cccc(Cl)c1Cl)C1CCN(c2ncccn2)CC1 > 76.9 µM, Cc1ccc(S(=O)(=O)N2CCN(C(=O)CN3CCN(C)CC3)C2)cc1 > 76.9 µM, O=C(CCCNS(=O)(=O)c1cccc2nsnc12)NCCc1ccccc1 > 76.9 µM, O=P(O)(O)c1ccccc1OCCOCCOc1ccccc1P(=O)(O)O > 76.9 µM, O=C(Nc1ccc2c(c1)OCCO2)C1CCN(S(=O)(=O)c2ccc(Br)s2)CC1 > 76.9 µM, CCOC(=O)c1c(NC(=O)CSc2nnc(CNC(=O)c3ccco3)n2C)sc2c1CCC2 > 76.9 µM, O=C(O)CCCC(=O)Nc1ccccc1C(=O)O > 76.9 µM, C/C=C/c1ccc(Oc2nnnn2-c2ccc(C(=O)O)cc2)c(OC)c1 > 76.9 µM, CCn1c(CNC(C)=O)nnc1SCC(=O)c1ccc(Br)cc1 > 76.9 µM, CCOC(=O)CN1CC23C=CC(O2)C(C(=O)Nc2ccc(F)c(C)c2)C3C1=O (stereo not given) > 76.9 µM, CSc1nsc(SCC(=O)Nc2ccccn2)n1 > 76.9 µM, NC(=O)C1CCN(C(=O)CSc2nc3c(c(-c4ccccc4)n2)CCCC3)CC1 > 76.9 µM, O=C(CN(Cc1ccc2c(c1)OCO2)C(=O)c1cnsn1)NC1CCCC1 > 76.9 µM, CC(C)(C)C1CCc2onc(C(=O)Nc3cnn(Cc4ccc(F)cc4)c3)c2C1 (stereo not given) > 76.9 µM, O=C(NCC1CCCO1)c1ccc(NC(=O)C2CC=CCC2C(=O)O)cc1 (stereo not given) > 76.9 µM, COc1cccc(NC(=O)CN(c2cccc(F)c2)S(C)(=O)=O)c1 > 76.9 µM, Cc1nn(S(=O)(=O)N2CCCCC2)c(C)c1Br > 76.9 µM, CCc1nnc(NC(=O)NCN2C(=O)C3C4C=CC(C4)C3C2=O)s1 (stereo not given) > 76.9 µM, Cc1ccc2c(c1)nnn2C1CCN(CC(=O)N2CCN(c3ccc(F)cc3)CC2)CC1 > 76.9 µM, O=C(Nc1ccccc1)NC1CCN(CCCN2C(=O)c3ccccc3C2=O)CC1 > 76.9 µM, COc1cc(C(=O)Nc2ccc3c(c2)OCCO3)ccc1OC(F)F > 76.9 µM, CCC(=O)Nc1cc2c(cc1C(=O)c1ccccc1)OCCO2 > 76.9 µM, Cc1ccc(OCC(=O)NCc2ccco2)cc1C > 76.9 µM, N#CC1=C(N)SC(N)=C(C#N)C1c1c(Cl)cccc1Cl > 76.9 µM, Nc1nnnn1/N=C/C=C/c1ccccc1 > 76.9 µM, COC(=O)c1ccc2c(c1)SC1=C(CCCC1=O)N2 > 76.9 µM, CCOC(=O)N1CCN(C(=O)c2ccc3c(=O)n(-c4ccc(OC)cc4OC)c(=S)[nH]c3c2)CC1 > 76.9 µM, c1ccc(SCc2nc(-c3ccncc3)no2)cc1 > 76.9 µM, O=C(Cc1cn2ccsc2n1)Nc1cccc2cnccc12 > 76.9 µM, Cc1ccc(S(=O)(=O)N2CCN(C3CCN(Cc4ccccc4)CC3)CC2)cc1 > 76.9 µM, Cc1cccc2cc(CN(Cc3ccco3)C(=O)c3ccncc3)c(=O)[nH]c12 > 76.9 µM, O=C(CN(Cc1ccccc1)C(=O)CCC(=O)Nc1nccs1)NCc1ccco1 > 76.9 µM, COc1ccc2c(c1OC)C(=O)OC2Nc1ccccc1S(=O)(=O)C(F)F (stereo not given) > 76.9 µM, C(=C\CSc1ncn[nH]1)/CSc1ncn[nH]1 > 76.9 µM, O=C(NCC(c1cccnc1)N1CCOCC1)c1cccs1 (stereo not given) > 76.9 µM, CCC(CO)NCCNC(CC)CO (stereo not given) > 76.9 µM, COCCn1nnnc1C(c1ccccc1OC)N1CCN(c2ccccc2F)CC1 (stereo not given) > 76.9 µM, COc1ccc(C(=O)NCc2nnc(SCC(=O)NCc3ccc(F)cc3)o2)cc1 > 76.9 µM, Cc1onc(-c2ccccc2)c1C(=O)Nc1nc(-c2cc(F)ccc2F)cs1 > 76.9 µM, Cc1ccc(-c2noc(CN3CCC(C(N)=O)CC3)n2)cc1 > 76.9 µM, CCCCOc1ccccc1NC(=O)C=C(C)C > 76.9 µM, Cn1nc(CC(=O)Nc2cccnc2N2CCOCC2)c2ccccc2c1=O > 76.9 µM, CCOC(=O)c1cccc(NC(=O)C(NS(=O)(=O)c2ccc3c(c2)CCN3C(C)=O)C(C)C)c1 (stereo not given) > 76.9 µM, O=C(CN1CC(c2ccccc2)CC1=O)OCc1ccccc1F (stereo not given) > 76.9 µM, Cn1c(SCc2nc3ccccc3c(=O)[nH]2)nnc1-c1ccco1 > 76.9 µM, O=C1CN(CC(=O)N2CCOCC2)c2ccccc2O1 > 76.9 µM

Source: PubChem BioAssay AID360 (National Center for Advancing Translational Sciences (NCATS), 2006)
